# Where a chain is given by its changes, count along the chain named. Some of the results follow. Binding of human antibodies (heavy:light variable regions, tested as scFv in one mRNA-display pool) to influenza hemagglutinin, with or without the stem antibody CR9114 bound first. Score = (mean enrichment − median) / interquartile range of that screen; higher = more enriched, 0 = typical non-binder. Active = above the paper's cut-off per screen: stems 28; unblocked H1 Solomon Islands 5, H1 Michigan 3, H3 5, H5 19, H7 2.85, both B 5; blocked 9, 7, H5 10, H7 10, B Phuket 10, B Lee 11.5. Scores are scaled within each screen and are no affinities; replicates correlate at about 0.6 to 0.9, and antibodies rare in the pool are noisier.
# B1: R95-1F03 (protein)
# chain 1: QVQLQESGPGLVKASGTLSLTCVVSGGSIRSENWWSWVRQPPGKGLEWIGEVYHSGNANYNPSLKSRVSISVDESKTQFSLRLTSVTAADTAVYYCVKDGARDSSGYYNYRWGWYDPWGQGILVVVSS
# chain 2: DIQMTQSPSSLSASVGDRVTITCRASQSIGGYLNWYQQKPGKAPKLLIYAASTLQSGVPARFSGSGSGTDFTLTISSLQPEDFATYYCQQSYNLVSITFGQGTRLDIK
# B2: antibody 3G01 (protein)
# chain 1: VQLQESGPGLVRPSKTLSLTCTVSGDSIDSSTDYWAWIRQPPGKGLEWIGNIYYSGTTYYNPSLQSRVTISVDTSKNQFSLTLRSVTAADTALFYCARQEIVGIRVWGQGTLVTVSS
# chain 2: DIVMTQSPDSLAVSLGERATISCKSSQSVLYSANNKNYLAWYQQRPGQPPKLLIYWSSTRESGVPDRFSGSGSGTDFSLTISSLQAEDVAVYYCQQYYDTPYTFGQGTKVEIK
# B3: antibody 2G04 (protein)
# chain 1: EVQLLESGGGVVQPGRSLRLSCAASGFIFSYSGIHWVRQAPGKGLEWVALISYDGRNQYYADSVKGRFTISRDNTKTTLQMNNLRAEDTAVYFCARDRHDFGDNYEIDYWGLGTTVTVSS
# chain 2: FMLTQPHSVSESPGKTVTISCTRSSGNIASYFVQWYQQRPGSAPTTVIFEDDQRPSGVPDRFSGSIDSSSNSASLTISGLRTEDEADYYCQSYDTINPHVIFGGGTKLTVL
# B4: K77-1B07 (protein)
# chain 1: QVQLVQSGAEVKKPGASVKVSCKASDYSLTNYYLHWVRQPPGQGLEWMGIIHPNGITTTYAQKFLGRVTMTRDTSTSTVYMELTSLRSDDTAVYYCARRGVVITSEGYHYYGLDVWGQGTTVTVSS
# chain 2: EIVLTQSPGTLSLSPGERATLPCRASQSVSSSYLAWYQQKPGQAPRLLIYGASSRATGIPDRFSGSGSGTDFTLSISRLEPEDFAVYYCHHYGSTGTFGGGTKVEIK
# B5: C1-2-2F03 (protein)
# chain 1: VQLQESGPGLVKPSETLSLTCSVFGDSISSHYWSWIRQPPGKGLEWIGYIYYSSRTDYNPSLKSRVTISVDTSKNQVSLSLRSVTAADTAVYYCARTMDTSGWQPYYYGMDVWGQGTTVTVSS
# chain 2: EIVLTQSPGTLSLSPGERATLSCRASHTVSSNNLAWYQQKPGQAPRLLIYGSSSRAYGIPDRFSGYGAGTDFTLTISRLEPEDFAVYYCQQYGSSPMYTFGQGTKVEIK
# B6: K77-1B01 (protein)
# chain 1: EVQLVESGGVVVQPGGSLNLSCAASGFTFDDYAMHWVRQTPGKGLEWVSLISWDGGHTYYADSVKGRFTISRDNSKNFLYLEGHSLRPEDTALYYCVRDPGAGNYYYYGMDVWGHGTTVTVSS
# chain 2: B2 chain 2 with S22N, S32R, A33S, N35K, R45K, S57A, S78T, D99T, Y102H, V110L
# B7: 051-10-2B05 (protein)
# chain 1: EVQLVESGGGLVKPGGSLRVSCAASGFIFGTFGMNWVRQAPGKGLEWVSSISSASASIEYADAVKGRFTISRDNAEKSLYLQMNSLRADDTAVYYCARDGGVPRRYSLDVWGQGTTVTVSS
# chain 2: QSALTQPASVSGSPGQSITISCTGTSSDVGAYNLVSWYQQHPGKAPKLMIFDVTNRPSGVSNRFSGSKSGDTASLTISGLQAEDEADYFCSSYTNTRTLLFGGGTKLTVL
# B8: C1-2A02 (protein)
# chain 1: VQLVESGGGLVQPGGSLRLSCVASGFDFNQYSMNWVRQAPGKGLEWLSYISSSAATVFYADSVQGRLTISRDNGKNSLFLQMNSLRVEDTAVYYCVREAVIVDGMPFEYWGQGALVTVSS
# chain 2: EIVMTQSPGTLSVSPGESATLSCRASESVGSSLAWYQQKPGQAPRLLIFHTSTRATGVPARFSGSGSGTEFTLTISGMQSEDSGVYHCHQYKGWPPWTFGQGTKVEIK
# B9: K77-1F01 (protein)
# chain 1: EVQLVESGGGLVQPGGSLRLSCAASGFTFSSYGMNWVRQAPGKGLEWISDISSDRSTIYYADSVKGRFTISRDNAKNSLYLQMNSLRVEDTAVYYCARDFMSYFFDYWGQGTLVTVSS
# chain 2: QSALTQPASVSGSPGQSITISCTGTSSDVGAYNYVSWYQQHPGKAPKLLIYDVNNRPSGVSNRFSGSKSGNTASLTISGLQAEDEADYYCNSYTSISTGVFGGGTNVT
# B10: K77-1D09 (protein)
# chain 1: QVQLQESGPGLVKPSETLSLTCTVSDGSVSSSSYFWGWIRQPPGKGLEWIGSIYYTGDTDYNPSLKGRVTISVDSSKNQFSLRLSSLTAADTAVYYCAREGPAWVRYSFDYWGQGSLVTVSS
# chain 2: QSALTQPASVSGSPGQSITISCTGTSSDVDDYNYVSWYQQDPGKAPKLIIYHVNKRPSGVSHRFSGSKSGNTASLTISGLQAEDEADYYCSSYTSSNTPVVFGGGTKLTVL
# B11: R95-1H06 (protein)
# chain 1: LVQLQESGPGLVKPSETLSLTCTVSGDSFTTYYWSWIRQPPGKGLEWIGYIYTIGRTHYNPALKSRVAISVDTSKNQFSLNLTSVTAADTAVYYCARIRIRGADYPFDHWGQGSLVTVHS
# chain 2: SYELTQPPSVSVAPGQTARISCGGDNIGSKNVHWYQQKPGRAPVLVVYDDTDRPSGIPDRFSGSNSGDTATLTITRLEAGDEADYYCHVWDSTGDHQGVFGGGTKLTVL
# B12: K77-2H01 (protein)
# chain 1: EVQLVQSGAEVKKPGESLKISCEASGDNFSSYWIAWVRQMPGKGLEWMGIIYPGDSDTRYSPPFQGQVTISADKSIRTAYLQWSSLKASDTAMYYCATSMMSFYYDESDAFRWALAAFDIWGHGTPVTVSS
# chain 2: EIVLTQSPGTLSLSPGERATLSCRASQSVASSSLAWYQQKPGQAPRLLIYSTSNRATGIPGRFSGSGSGTDFILTVNRLEPEDFAVYYCQHNDSSPAWSFGQGTKVEI
# B13: antibody 3E01 (protein)
# chain 1: VQLQESGPGLLKPSETLSLICSVSDYSVTTSTSYWGWIRQTPGKGLEWIGSLSYSGFSYYNPSLRSRVTMSFDSSKKQVSLRLNSVTAADTAVYYCAILYGSIIDYWGPGILVTVSS
# chain 2: DIQMTQSPSTLSASVGDRVTITCRASQSIRTWLAWYQQKPGKAPKLLISRASILESGDPSRFSGSGSGTEFTFTISSLQPDDFATYYCQHYNNYWWTFGQGTKVEIK
# B14: SFV020-5C05 (protein)
# chain 1: VQLVESGGGVVQPGRSLRLSCAASGFSFSNYGIHWVRQVPGKGLEWVAVISHAGAYKYYADSVRGRFTISRDNSKNILYLQMNSLRVEDTAVYYCATLGGDIVVVSAERSGYYYGLDVWGQGTTVTVSS
# chain 2: DIQMTQSPSTLSASVGDRVTITCRASQSISNRLVWYQQKPGTAPKLLIYQASTLEGEVPSRFSGSGSGTEFTLTITSLQPDDLATYFCQQYNTNSRTFGQGTKVEIK
# B15: antibody 1D05 (protein)
# chain 1: VQLLESGGGLVQPGGSLRLSCAASGFAFNTYAMSWVRQAPGKGLEWVSASGGLHGASYYADSVQGRFTIYRGNSKSTLYLQMNYLRAEDTAVYYCATDLDGDEGTWFENWGQGTLVTVSS
# chain 2: EIVMTQSPATLSVSPGERATLSCRASQSLSNNLTWYQQKPGQAPRLLIYGASTRATGLPARFSGSGSGTEFTLTISSLQSEDFAVYFCQQYNNWPPTFGQGTKVEIK
# B16: 01.ac.01 (protein)
# chain 1: QVQVVQSGAEVRKPGASVRLSCKASGYTFDNYYIHWMRQAPGQGLEWMALINPSAGSTIFAQKFHGRVTMTRDTSTSAVHMELSGLRSEDTAVYYCARSQTWGYNIYFDYWGQGTLVTVSS
# chain 2: EIVLTQSPVSLSLSPGERATLSCRASQSVSIIYLAWYQQRPGQAPRLLIYGASSRATGIPDRFSGSGCGTDFTLTISRLEHEDSAVYYCQQCGGTYPTFGQGTKVEIK
# B17: R95-2F01 (protein)
# chain 1: QVQLQESGPGLVKPSETLSLTCTVSGGSISSHYWSWIRQPPGKGLEWIGYIYDSGKTNHNPTLKSRVTISADTSKNQFSLKLSSVTAADTAVYYCASARRYCSSTSCYGLEYYFGMDVWGQGTTVTVSS
# chain 2: DIVMTQSPLSLPVTPGEPASISCRSSQSLVHSNGHNYLDWYLQKPGQSPQLLIYLSSSRASGVPDRFSGSGSGTDFTLKINRVEAEDVGVYFCMQALQAPYTFGQGTRLEIK
# B18: 01.r.01 (protein)
# chain 1: QVQLQESGPGLVKPSQTLSLTCTVSGGSISSGSYYWSWIRQPAGKGLEWIGSIYTSGSTDYNPSLKNRVSISIDTSKNHFSLVLSSVTAADTAVYFCARDQWEGAFSYGAGFWGQGAVVTVSS
# chain 2: DIQMTQSLSSVSASIGDRVTIICRASQGVGNWLVWYQQKPGKARKLLMYAASTLQTDVPSRVSGRGYGTEFTLTISSEQHEDYANYYCQQAHSQPRTFGQGTKVEVK
# B19: SFV018-4D01 (protein)
# chain 1: QVQLQESGPGLVKPSETLSLTCSVSGGSISPHYWSWIRQPPGKGLEWIGYIYYAGSTNYSPSLKNRVTISVDTSKNHFSLQLRSVTAADTAVYYCARGGFPAELPPPLDPWGQGNLVTVSS
# chain 2: SYELTQPPSVSVSPGQTASITCSGDNLGDKFASWYQQKPGQSPVLVIYQDIRRPSGIPERFSASNSGNTATLTISGTQVMDEADYYCQTWDSSTVLFGGGTKLTVL
# Legend:
# [1] = biological target: H1 HA stem construct (mini-HA #4900); experiment: mRNA display binding score; higher = more enriched on the antigen; conditions: antigen blocked with: nothing
# Description: (§1)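 A pool of natively paired antibodies, displayed as scFv on mRNA, was selected once on antigen-coated beads and sequenced before and after; two replicates.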
# [2] = biological target: H3 HA stem construct (H3ssF); experiment: as above; conditions: antigen blocked with: nothing
# Description: as §1
Binder,mRNA display binding score [1],mRNA display binding score [2]
B1,inactive: -1.12,inactive: -0.281
B2,inactive: -0.384,inactive: -0.472
B3,inactive: 3.47,inactive: 2.05
B4,inactive: -0.863,inactive: 0.845
B5,inactive: 0.927,inactive: 0.744
B6,inactive: 0.269,inactive: -0.372
B7,inactive: -0.0201,active: 58.5
B8,inactive: 0.787,inactive: 0.125
B9,inactive: 0.62,inactive: -0.0221
B10,inactive: -0.55,inactive: -0.454
B11,inactive: -0.216,inactive: -0.307
B12,inactive: 0.448,inactive: 0.788
B13,inactive: -0.638,inactive: 0.316
B14,inactive: 0.378,inactive: 0.189
B15,inactive: 1.05,inactive: -0.161
B16,inactive: 0.954,inactive: 0.402
B17,inactive: -0.0191,inactive: -0.47
B18,inactive: -0.987,inactive: -0.842
B19,inactive: -0.162,inactive: 0.411
